According to patent US12036204B2, “Pharmaceutical composition for treating tumor” (Eisai R&D Management Co., Ltd., priority 2019, dated 2024):

What was measured:
[1] = tested on: murine colorectal cancer CT-26 cell line with P glycoprotein knock-out (Pgp-KO CT-26); assay: Antitumor effect in Pgp-KO CT-26 tumor transplantation model (Example 3); format: in vivo, mouse; conditions: in comparison with the control group; 0.3 mg/kg
Excerpt: From mouse colorectal cancer CT-26 cells (purchased from ATCC), a P glycoprotein knockout cell line (Pgp-KO CT-26) was produced in accordance with the same materials and procedures used in the production of Pgp-KO 4T1 cells.

[2] = tested on: murine breast cancer 4T1 cell line with P glycoprotein knock-out (Pgp-KO 4T1); assay: Antitumor effect in Pgp-KO 4T1 tumor transplantation model, low dose 0.1 mg/kg (Example 1); conditions: anti-mouse PD-1 antibody 200 μg/mouse

C=C1C[C@@H]2CC[C@@]34C[C@H]5O[C@H]6[C@@H](O3)[C@H]3O[C@H](CC[C@@H]3O[C@H]6[C@H]5O4)CC(=O)C[C@@H]3[C@@H](OC)[C@@H](C[C@H](O)CN)O[C@H]3C[C@H]3O[C@@H](CC[C@@H]1O2)C[C@@H](C)C3=C [Eribulin mesylate]
Antitumor effect (tumor volume) [1]: no antitumor effect
Effect of extending the time of suppressing tumor growth (Tx5) ([2]; vs control): no extension effect
Antitumor effect (tumor volume, FIG. 1) ([2]; in comparison with the control group): no antitumor effect

Structures can show the parent of a compound that is named as a salt.
